In article PMC5700166 one finds binding signal data, which are given here for 14 sequences.

What all share (experiment): protein-binding microarray (PBM)
Details in all cases: PBM: ~300 nM protein, 6 mM HEPES pH 7.8, 80 mM KCl, 0.5 mM EDTA, 0.5 mM EGTA, 6% glycerol, 35 ng/ul poly-dIdC, 1% milk, 1 h, room temperature; Ap Aiptasia and Nv Nematostella (sea anemones) / Co Capsaspora / Aq Amphimedon (sponge) / Dm Drosophila / Hu human; RHD is the Rel homology domain; high values mean tight binding; most listed sequences are background and not binding sites; double strand, one strand shown

In one assay the target is T1, GST-Ap-NF-kB RHD (UniProt A0A913YAJ5).
T1 sequence: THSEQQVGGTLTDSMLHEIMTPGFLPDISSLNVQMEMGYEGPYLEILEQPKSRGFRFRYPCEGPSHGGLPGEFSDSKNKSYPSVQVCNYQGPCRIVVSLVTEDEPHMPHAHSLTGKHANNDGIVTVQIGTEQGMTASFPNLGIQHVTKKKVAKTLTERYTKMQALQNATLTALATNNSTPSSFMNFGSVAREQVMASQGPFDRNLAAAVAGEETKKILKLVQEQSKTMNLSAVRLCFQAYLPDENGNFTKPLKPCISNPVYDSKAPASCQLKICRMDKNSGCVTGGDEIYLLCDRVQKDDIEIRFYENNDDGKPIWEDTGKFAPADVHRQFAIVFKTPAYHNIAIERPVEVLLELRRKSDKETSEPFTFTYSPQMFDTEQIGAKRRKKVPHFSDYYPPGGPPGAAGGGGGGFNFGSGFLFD

For assay [1], the target named is T2, GST-Nv-NF-kB (Cys allele) (UniProt E5G601).
T2 sequence: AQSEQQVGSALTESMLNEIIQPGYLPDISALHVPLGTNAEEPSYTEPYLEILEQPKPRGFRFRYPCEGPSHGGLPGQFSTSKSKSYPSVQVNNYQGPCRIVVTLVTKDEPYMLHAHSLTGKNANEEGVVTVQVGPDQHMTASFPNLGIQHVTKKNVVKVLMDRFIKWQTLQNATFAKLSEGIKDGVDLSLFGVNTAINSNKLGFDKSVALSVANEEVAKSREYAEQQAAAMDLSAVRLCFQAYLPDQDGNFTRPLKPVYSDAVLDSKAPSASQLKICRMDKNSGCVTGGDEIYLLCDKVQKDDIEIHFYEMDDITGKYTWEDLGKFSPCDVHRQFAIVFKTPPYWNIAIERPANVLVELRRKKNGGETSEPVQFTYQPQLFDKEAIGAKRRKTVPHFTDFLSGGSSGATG

The target of a further assay is T3, GST-Co-NF-kB (UniProt F1ARL5).
T3 sequence: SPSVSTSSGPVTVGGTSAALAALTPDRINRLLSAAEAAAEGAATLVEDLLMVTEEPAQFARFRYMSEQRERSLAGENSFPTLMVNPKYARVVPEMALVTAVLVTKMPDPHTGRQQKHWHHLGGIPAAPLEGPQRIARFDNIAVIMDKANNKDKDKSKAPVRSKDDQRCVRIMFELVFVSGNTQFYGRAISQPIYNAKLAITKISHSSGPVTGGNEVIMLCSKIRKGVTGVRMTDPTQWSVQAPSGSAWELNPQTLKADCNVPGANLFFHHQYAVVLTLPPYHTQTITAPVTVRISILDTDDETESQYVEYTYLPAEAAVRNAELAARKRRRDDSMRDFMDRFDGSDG

The next assay concerns the target T4, GST-Dm-Relish (UniProt Q94527).
T4 sequence: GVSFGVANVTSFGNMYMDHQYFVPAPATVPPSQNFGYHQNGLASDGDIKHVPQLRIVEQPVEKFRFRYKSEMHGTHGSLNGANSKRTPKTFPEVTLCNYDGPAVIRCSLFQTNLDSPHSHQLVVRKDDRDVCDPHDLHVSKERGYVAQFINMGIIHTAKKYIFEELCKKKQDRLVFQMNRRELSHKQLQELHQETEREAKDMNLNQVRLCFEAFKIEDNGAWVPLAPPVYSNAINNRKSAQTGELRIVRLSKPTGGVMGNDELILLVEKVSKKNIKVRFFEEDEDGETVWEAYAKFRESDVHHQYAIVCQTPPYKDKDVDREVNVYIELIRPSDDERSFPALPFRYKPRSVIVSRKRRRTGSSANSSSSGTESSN

In a further assay the target is T5, GST-Aq-NF-kB (UniProt A9Y5G7).
T5 sequence: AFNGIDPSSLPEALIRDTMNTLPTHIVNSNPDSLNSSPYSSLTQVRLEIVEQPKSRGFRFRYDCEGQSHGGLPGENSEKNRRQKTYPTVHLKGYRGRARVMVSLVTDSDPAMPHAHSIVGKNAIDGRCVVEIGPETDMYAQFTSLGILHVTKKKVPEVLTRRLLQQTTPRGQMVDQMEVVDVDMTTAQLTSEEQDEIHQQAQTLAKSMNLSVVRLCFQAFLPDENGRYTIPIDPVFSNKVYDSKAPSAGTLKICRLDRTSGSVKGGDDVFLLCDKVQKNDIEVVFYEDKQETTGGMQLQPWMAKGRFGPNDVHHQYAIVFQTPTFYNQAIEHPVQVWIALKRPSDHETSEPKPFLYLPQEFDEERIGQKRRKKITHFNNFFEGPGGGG

This is a selection; strong and weak results do not stand in their true shares. The list includes weakly bound sequences.

Turning to “CCGATTAACATCAAAGAAGTTGGTGATGTTAATCGGGTCTTGATTCGCTTGACGCTGCTG”, the binding signal in the assay with GST-Ap-NF-kB RHD was -0.171 z-score; in assay [1], -0.0337 z-score; with GST-Co-NF-kB it was 0.616 z-score; with GST-Dm-Relish it was 0.159 z-score; in the assay with GST-Aq-NF-kB, -0.0463 z-score.

Take “CCGATTAACATCAAATTTCCAAATGATGTTAATCGGGTCTTGATTCGCTTGACGCTGCTG”: the binding signal in the assay with GST-Ap-NF-kB RHD is -0.696 z-score; in assay [1], -0.399 z-score; with GST-Co-NF-kB, -0.471 z-score; in the assay with GST-Dm-Relish it was 0.661 z-score; with GST-Aq-NF-kB it was 0.286 z-score.

As for “CCGATTAACATCAACAAATTTCCTGATGTTAATCGGGTCTTGATTCGCTTGACGCTGCTG”, the binding signal worked out at 0.272 z-score with GST-Ap-NF-kB RHD; 0.203 z-score in assay [1]; 0.131 z-score in the assay with GST-Co-NF-kB; 0.427 z-score with GST-Dm-Relish; 0.782 z-score with GST-Aq-NF-kB.

Consider “CCGATTAACATCATTTCCGGAAATGATGTTAATCGGGTCTTGATTCGCTTGACGCTGCTG”, for which the binding signal in the assay with GST-Ap-NF-kB RHD is -0.131 z-score; in assay [1], 0.86 z-score; with GST-Co-NF-kB, -1.12 z-score; with GST-Dm-Relish, 0.0941 z-score; in the assay with GST-Aq-NF-kB, 0.679 z-score.

Turning to “CCGATTAACATCAGCGCCAGAGATGATGTTAATCGGGTCTTGATTCGCTTGACGCTGCTG”, the binding signal with GST-Ap-NF-kB RHD was -0.133 z-score; in assay [1] it was -1.06 z-score; with GST-Co-NF-kB it was -1.33 z-score; with GST-Dm-Relish, -1.18 z-score; with GST-Aq-NF-kB it was -0.455 z-score.

Take “CCGATTAACATCATTCGCATTTTTGATGTTAATCGGGTCTTGATTCGCTTGACGCTGCTG”: the binding signal in the assay with GST-Ap-NF-kB RHD was -0.0705 z-score; in assay [1], -0.415 z-score; in the assay with GST-Co-NF-kB, -0.183 z-score; with GST-Dm-Relish it was 0.446 z-score; with GST-Aq-NF-kB, -0.299 z-score.

“CCGATTAACATCAGTAACTCGAATGATGTTAATCGGGTCTTGATTCGCTTGACGCTGCTG”: the binding signal in the assay with GST-Ap-NF-kB RHD was -0.848 z-score; in assay [1], -0.948 z-score; in the assay with GST-Co-NF-kB, -0.212 z-score; with GST-Dm-Relish, -0.739 z-score; in the assay with GST-Aq-NF-kB it was -0.502 z-score.

For “CCGATTAACATCAGAAATTCCGATGATGTTAATCGGGTCTTGATTCGCTTGACGCTGCTG”, the binding signal is -0.392 z-score with GST-Ap-NF-kB RHD; 0.00391 z-score in assay [1]; -0.28 z-score in the assay with GST-Co-NF-kB; 0.0579 z-score in the assay with GST-Dm-Relish; 0.552 z-score in the assay with GST-Aq-NF-kB.

“CCGATTAACATCAAATTTCCGTATGATGTTAATCGGGTCTTGATTCGCTTGACGCTGCTG”: the binding signal was -0.111 z-score with GST-Ap-NF-kB RHD; 0.297 z-score in assay [1]; 0.774 z-score in the assay with GST-Co-NF-kB; 0.595 z-score with GST-Dm-Relish; 0.936 z-score with GST-Aq-NF-kB.

For the sequence “CCGATTAACATCATGGCATTGCGTGATGTTAATCGGGTCTTGATTCGCTTGACGCTGCTG”, the binding signal is -0.8 z-score with GST-Ap-NF-kB RHD; -0.794 z-score in assay [1]; -0.385 z-score in the assay with GST-Co-NF-kB; -0.886 z-score with GST-Dm-Relish; -0.456 z-score in the assay with GST-Aq-NF-kB.

In the case of “CCGATTAACATCATAAAGTCATGTGATGTTAATCGGGTCTTGATTCGCTTGACGCTGCTG”, the binding signal in the assay with GST-Ap-NF-kB RHD was -0.451 z-score; in assay [1], -0.048 z-score; with GST-Co-NF-kB it was 0.605 z-score; with GST-Dm-Relish, 0.166 z-score; with GST-Aq-NF-kB it was -0.415 z-score.

“CCGATTAACATCAAGCACAGCGATGATGTTAATCGGGTCTTGATTCGCTTGACGCTGCTG”: the binding signal with GST-Ap-NF-kB RHD was -0.192 z-score; in assay [1], -0.876 z-score; with GST-Co-NF-kB, -0.871 z-score; with GST-Dm-Relish it was -0.65 z-score; with GST-Aq-NF-kB, -0.729 z-score.

As for “CCGATTAACATCAGGAAATTGGATGATGTTAATCGGGTCTTGATTCGCTTGACGCTGCTG”, the binding signal with GST-Ap-NF-kB RHD was -0.435 z-score; in assay [1] it was 0.397 z-score; with GST-Co-NF-kB, 0.21 z-score; with GST-Dm-Relish, -0.416 z-score; with GST-Aq-NF-kB, -0.289 z-score.

With “CCGATTAACATCATCAACCCGGCTGATGTTAATCGGGTCTTGATTCGCTTGACGCTGCTG”, the binding signal in the assay with GST-Ap-NF-kB RHD was -0.173 z-score; in assay [1], 0.199 z-score; with GST-Co-NF-kB, -0.801 z-score; with GST-Dm-Relish, -0.807 z-score; with GST-Aq-NF-kB, -0.301 z-score.
